Test results: PubChem BioAssay AID485294 (National Center for Advancing Translational Sciences (NCATS), 2010)
“And” between values parts separate entries of the source, which are not always exact repeats. Equal entries are not always repeated. Screen size: about 370,000 compounds; about 150 (0.041%) were called active. The inconclusive results got no clear call from the source; some entries with a clear call stand among them for comparison. Calls come from the whole dose curve; as a rule, active = well fitted inhibition curve with a large enough effect; inconclusive = small, poorly fitted or top-dose-only effect; inactive = flat fitted curve, though single readings scatter. Potencies of inconclusive entries are doubtful fits and often do not repeat.

target: Beta-lactamase (Escherichia coli (strain K12)) (UniProt P00811); test: qHTS Inhibitors of AmpC Beta-Lactamase (assay with detergent); settings: AmpC hydrolysis of nitrocefin, absorbance 480 nm, 0.01% Triton; activity change, negative = inhibition: at 114 µM (top of the series); note: nearly all actives have a fitted effect of over 25% in size;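 for activity change, negative = inhibition: 0% = no-compound wells and -100% = no-enzyme wells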
Summary of the method: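 20 mM phosphate pH 7.0 + 0.01% (detergent screen) or 0.0001% Triton X-100; 5.3 nM AmpC reagent; cpd preinc 15 min RT; nitrocefin (800 uM stock) to start; A480 q20 s × 4 min; Activity was normalised to no-enzyme and no-compound control wells.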
Potency is the fitted concentration of half-maximal effect; tags give direction and shape of the fitted curve.

UniProt P00811, sequence (P00811 whole entry, looked up): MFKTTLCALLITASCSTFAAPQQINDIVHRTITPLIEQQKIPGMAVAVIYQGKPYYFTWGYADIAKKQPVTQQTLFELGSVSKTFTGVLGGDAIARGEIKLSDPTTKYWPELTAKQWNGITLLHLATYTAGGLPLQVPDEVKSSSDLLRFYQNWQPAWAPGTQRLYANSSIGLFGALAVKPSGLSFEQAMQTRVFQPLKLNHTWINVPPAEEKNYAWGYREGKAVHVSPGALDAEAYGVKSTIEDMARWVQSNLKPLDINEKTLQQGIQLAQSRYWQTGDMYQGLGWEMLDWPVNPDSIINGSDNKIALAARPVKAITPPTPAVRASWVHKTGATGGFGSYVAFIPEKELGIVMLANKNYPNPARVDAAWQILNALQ

Row | Compound | Potency | activity change, negative = inhibition
1 | C=CCn1c(SCn2nnc3ccccc3c2=O)nnc1C1CCCCC1 | inconclusive: 44.7 µM [inhibitor, partial curve, poor fit] | 
2 | CCCCNc1nc(NC)nc(Cl)c1SC | inconclusive: 3.16 µM [inhibitor, full curve, poor fit] | 
3 | COC(=O)c1c(NC(=O)CCCC(=O)O)sc(C)c1C | inconclusive: 89.1 µM [inhibitor, partial curve, poor fit] | 
4 | O=S(=O)(c1ccc(NC2CCCc3ccccc32)nc1)N1CCOCC1 (stereo unspecified) | inconclusive: 5.62 µM [inhibitor, full curve, poor fit] | 
5 | COC(=O)C1=C(C)N(C)C(=S)NC1c1c(OC)ccc2ccccc12 (stereo unspecified) | inconclusive: 2.82 µM [inhibitor, full curve, poor fit] | 
6 | O=C(Nc1cccc(-c2csc(Nc3ccccc3)n2)c1)c1ccccc1 |  | inactive: 0.868%
7 | CCOP(=O)(OCC)C(Nc1ccc([N+](=O)[O-])cc1)c1ccc(Cl)cc1 (stereo unspecified) | inconclusive: 4.47 µM [inhibitor, single point] | 
8 | CC(CCc1ccccc1)NC(=O)CCC(=O)N1CCC(C(=O)O)CC1 (stereo unspecified) | inconclusive: 126 µM [inhibitor, partial curve, poor fit] | 
9 | COC(=O)c1scc(S(=O)(=O)c2ccccc2)c1N | inconclusive: 6.31 µM [inhibitor, full curve] | 
10 | Cc1onc(-c2ccccc2Cl)c1C(=O)Nc1nnc(C(C)C)s1 | inconclusive: 7.94 µM [inhibitor, full curve] | 
11 | CCOc1ccc(C2c3c(oc4cc(C)c(C)cc4c3=O)C(=O)N2CCCN2CCOCC2)cc1 (stereo unspecified) |  | inactive: -1.35%
12 | CCNC(=O)OCc1cn(-c2ccccc2)nn1 | inconclusive: 1.12 µM [inhibitor, full curve, poor fit] | 
13 | Cc1ccnc(NC(=S)NC(=O)c2cccs2)c1 | inconclusive: 0.708 µM [inhibitor, full curve] | 
14 | CCOC(=O)c1[nH]c2cc(OC)c(OC)cc2c1NC(=O)CN(C)C1CCCCC1 | inconclusive: 10 µM [inhibitor, full curve] | 
15 | C[C@@H](C(=O)Nc1ccc2c(c1)OCCO2)n1nnc2ccccc2c1=O |  | inactive: -1.07%
16 | CCN(CC)CCNC(=O)c1ccc(CSc2nc3ccncc3n2Cc2cccc(F)c2)cc1 |  | inactive: 14.3%
17 | COc1ccc(C2=C(SC)CC2=NC(C)(C)C)cc1 |  | inactive: -1.31%
18 | CCOC(=O)C1CCN(CC(O)COc2ccc(C(C)(C)C)cc2)CC1 (stereo unspecified) | inconclusive: 0.708 µM [inhibitor, full curve, poor fit] | 
19 | Cc1ccc(C(=O)C=CNNC(=O)c2ccccc2)cc1 | inconclusive: 100 µM [inhibitor, partial curve, poor fit] | 
20 | CC(/C=N\NC(=O)c1ccc(C)nc1)=C\c1ccccc1 | inconclusive: 112 µM [inhibitor, partial curve, poor fit] | 
21 | CC(C)c1ccc(NC(=O)c2cc(S(=O)(=O)N3CCCCC3)cn2C)cc1 | inconclusive: 4.47 µM [inhibitor, single point] | 
22 | O=C(c1noc2c1CCCCC2)N1CCN(c2cccc(C(F)(F)F)c2)CC1 |  | inactive: -7.61%

Row | Compound | Potency | activity change, negative = inhibition
23 | Cc1ccc(C2=CC(c3cccs3)n3nnnc3N2)cc1 (stereo unspecified) | inconclusive: 100 µM [inhibitor, single point] | 
24 | O=C(Cn1cncn1)N1CCN(c2ccc(F)cc2)CC1 |  | inactive: -3.23%
25 | CCC(=O)[C@@]1(C)[C@H](C)C[C@H]2[C@@H]3CCC4=CC(=O)C=C[C@]4(C)[C@H]3[C@@H](O)C[C@@]21C | inconclusive: 2.82 µM [inhibitor, full curve, poor fit] | 
26 | Cc1nn(C(C)CC(=O)O)c(C)c1Br (stereo unspecified) | inconclusive: 0.631 µM [inhibitor, full curve, poor fit] | 
27 | CCOC(=O)c1ccccc1NC(=O)COC(=O)CCNS(=O)(=O)c1cccs1 | inconclusive: 0.794 µM [inhibitor, full curve] | 
28 | Cc1ccc(S(=O)(=O)N2CCOCC2)cc1NC(=O)c1cc([N+](=O)[O-])ccc1N1CCOCC1 | inconclusive: 0.794 µM [inhibitor, full curve] | 
29 | CC(C)c1ccc(NC(=O)CCNS(=O)(=O)c2cccc3nonc23)cc1 | inconclusive: 14.1 µM [inhibitor, partial curve] | 
30 | CCCCNC(=O)COCc1cc(-c2ccc3c(c2)OCO3)on1 |  | inactive: -9.47%
31 | Cc1ccc(NS(=O)(=O)c2cc(C(N)=O)ccc2C)cc1 | inconclusive: 44.7 µM [inhibitor, partial curve, poor fit] | 
32 | CCOc1ccc(OCc2cccc(C(=O)Nc3ccc(CN4CCCCC4)cc3)c2)cc1 |  | inactive: -9.42%
33 | O=C1C=C(NC(=O)Nc2ccc(Cl)c(Cl)c2)CCC1 | inconclusive: 0.631 µM [inhibitor, partial curve, poor fit] | 
34 | CC(=O)c1cccc(NC(=O)CSc2nnc(-c3cccnc3)o2)c1 | inconclusive: 50.1 µM [inhibitor, partial curve, poor fit] | 
35 | Cc1cccc(NP(C)(=O)c2nc3c(s2)CCCC3)c1 (stereo unspecified) | inconclusive: 79.4 µM [inhibitor, partial curve] | 
36 | Cc1cc(N2CCN(C)CC2)nc2ccc(NC(=S)N3CCCCCC3)cc12 |  | inactive: 4.77%
37 | COC(=O)c1ccc(CSc2ncnc3ccccc23)o1 | inconclusive: 112 µM [inhibitor, partial curve, poor fit] | 
38 | NC(=S)n1[nH]c(-c2ccc([N+](=O)[O-])cc2)c(N=Nc2cccc([N+](=O)[O-])c2)c1=O | inconclusive: 35.5 µM [inhibitor, partial curve, poor fit] | 
39 | Cc1cc(C)nc(SCNC(=O)c2ccc(Cl)cc2)n1 | inconclusive: 0.631 µM [inhibitor, full curve, poor fit] | 
40 | Cc1cc(C(C)(C)C)cc(C)c1C[n+]1ccc2ccccc2c1 |  | inactive: 5.63%
41 | Cc1ccc(NC(=O)CSc2nnc(N)s2)cc1S(=O)(=O)N1CCCCC1 | inconclusive: 1 µM [inhibitor, full curve] | 
42 | CC(Cc1cccc(C(F)(F)F)c1)NCCOC(=O)c1ccccc1 (stereo unspecified) | inconclusive: 794 nM [inhibitor, full curve, poor fit] and inconclusive: 5.62 µM [inhibitor, full curve] | 
43 | O=C(CCCN1C(=O)c2ccccc2C1=O)NCC1CCCO1 (stereo unspecified) | inconclusive: 28.2 µM [inhibitor, full curve, poor fit] | 
44 | Cc1ccc(C(=O)OCC(=O)Nc2c(C)n(C)n(-c3ccccc3)c2=O)cc1[N+](=O)[O-] |  | inactive: -7.2%

Row | Compound | Potency | activity change, negative = inhibition
45 | CCN(C(=O)CSc1nnc(-c2ccncc2)o1)c1ccccc1 | inconclusive: 0.282 µM [inhibitor, full curve, poor fit] | 
46 | O=C(Nc1cccc(Cl)c1)Nc1ccccc1-n1ccnc1 |  | inactive: 0.732%
47 | CC(=O)c1cccc(NC(=O)CSc2nnc(-c3ccncc3)o2)c1 | inconclusive: 0.708 µM [inhibitor, full curve, poor fit] | 
48 | CCCCOc1ccccc1C(=O)NNC(=S)NC(=O)c1ccccc1[N+](=O)[O-] | inconclusive: 112 µM [inhibitor, partial curve, poor fit] | 
49 | COc1cc(OC)cc(C(=O)NC(=S)NNC(=O)Cc2cccs2)c1 | inconclusive: 44.7 µM [inhibitor, partial curve] | 
50 | N/C(=N\OC(=O)c1cc(Cl)ccc1Cl)c1ccccn1 | inconclusive: 89.1 µM [inhibitor, partial curve, poor fit] | 
51 | Cc1cc(C(=O)COC(=O)c2n[nH]c(=O)c3ccccc23)c(C)n1C |  | inactive: -4.03%
52 | CC(C)(C)c1cccc(/C=N/O)c1O | inconclusive: 100 µM [inhibitor, partial curve, poor fit] | 
53 | Cc1cc(NC(=O)CN(C)S(=O)(=O)c2ccc(-c3ccc(=O)[nH]n3)s2)ccc1Br | inconclusive: 7.94 µM [inhibitor, full curve, poor fit] | 
54 | CCC(C(=O)Nc1ncccn1)(C(F)(F)F)C(F)(F)F | inconclusive: 89.1 µM [inhibitor, partial curve] | 
55 | CC(=O)C(N=Nc1ccccc1)(Sc1nnc(-c2ccccc2)n1-c1ccccc1)C(=O)Nc1ccccc1 (stereo unspecified) |  | inactive: 3.66%
56 | CCOc1ccc(C(=O)Nc2ccccc2-c2ccccc2)cc1Cl | inconclusive: 2.82 µM [inhibitor, full curve, poor fit] | 
57 | Cc1cc(C)n(C(C[N+](=O)[O-])c2ccc(Cl)cc2)n1 (stereo unspecified) |  | inactive: 2.05%
58 | c1ccc(SCCc2ccncc2)cc1 | inconclusive: 6.31 µM [inhibitor, partial curve] | 
59 | Cc1cc(NC(=O)CN2CC3CC(C2)c2cccc(=O)n2C3)nc2c1c(=O)oc1ccccc12 (stereo unspecified) | inconclusive: 3.98 µM [inhibitor, full curve] | 
60 | COCCN1CCN(C(=O)C2CCC(=O)N(Cc3ccccc3OC)C2)CC1 (stereo unspecified) |  | inactive: 2.19%
61 | Cc1nc(NC(=O)c2ccco2)sc1-c1csc(Nc2ccc(Cl)cc2Cl)n1 | inconclusive: 3.16 µM [inhibitor, full curve, poor fit] | 
62 | COc1cc2c(cc1OC)CN(C(=O)c1cccc(S(=O)(=O)N3CCc4ccccc43)c1)CC2 |  | inactive: 3.03%
63 | CCNC(=S)N/N=C/c1ccc(C(=O)O)cc1 |  | inactive: -1.34%
64 | O=C(Nc1nccs1)C1CCCN(S(=O)(=O)c2cccnc2)C1 (stereo unspecified) | inconclusive: 4.47 µM [inhibitor, full curve, poor fit] | 
65 | Cn1c(-c2nonc2NC(=O)c2ccc(C(C)(C)C)cc2)nc2ccccc21 | inconclusive: 89.1 µM [inhibitor, partial curve] | 
66 | O=C(CSc1nnc(-c2ccc(S(=O)(=O)N3CCCC3)cc2)o1)NCc1ccco1 | inconclusive: 10 µM [inhibitor, full curve, poor fit] | 
